# In US20250340646A1 (ELPIS BIOPHARMACEUTICALS, published 2025):
# T1: recombinant His-tagged human IL-2Rβ (human, UniProt P14784 27-240, limits assumed)
# T1 construct: also called IL-2Rβ-HIS; IL-15Rβ-HIS
# T1 sequence (looked up): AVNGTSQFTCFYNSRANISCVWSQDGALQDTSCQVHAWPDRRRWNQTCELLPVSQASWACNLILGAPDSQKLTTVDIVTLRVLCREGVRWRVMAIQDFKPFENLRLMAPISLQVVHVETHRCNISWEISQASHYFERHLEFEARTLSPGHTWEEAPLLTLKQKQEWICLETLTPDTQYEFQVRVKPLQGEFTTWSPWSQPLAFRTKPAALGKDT
# B1: anti-PD-L1 scFv/IL-15 fusion EP207/EP208 (bispecific antibody)
# chain 1: QVQLVQSGAEVKKPGSSVKVSCKASGGTFSSYAISWVRQAPGQGLEWMGGIIPIFGTANYAQKFQGRVTITADESTSTAYMELSSLRSEDTAVYYCARDKWYGSAWRGDYWGQGTLVTVSSGGGGSGGGGSGGGGSQSVLTQPPSASGTPGQRVTISCSGSYSNIGSNFVNWYQQLPGTAPKLLIHFNNQRPSGVPDRFSGSRSGTSASLAISGLQSEDEADYFCSTWDDSLKGPIFGGGTKLTVLDKTHTCPPCPAPELLGGPSVFLFPPKPKDTLMISRTPEVTCVVVDVSHEDPEVKFNWYVDGVEVHNAKTKPREEQYNSTYRVVSVLTVLHQDWLNGKEYKCKVSNKALPAPIEKTISKAKGQPREPQVYTLPPCRDELTKNQVSLWCLVKGFYPSDIAVEWESNGQPENNYKTTPPVLDSDGSFFLYSALTVDKSRWQQGNVFSCSVMHEALHNHYTQKSLSLSPGKGGGGSGGGGSGGGGSGGGG[letters of about 120 residues omitted]
# chain 2: QVQLVQSGAEVKKPGSSVKVSCKASGGTFSSYAISWVRQAPGQGLEWMGGIIPIFGTANYAQKFQGRVTITADESTSTAYMELSSLRSEDTAVYYCARDKWYGSAWRGDYWGQGTLVTVSSGGGGSGGGGSGGGGSQSVLTQPPSASGTPGQRVTISCSGSYSNIGSNFVNWYQQLPGTAPKLLIHFNNQRPSGVPDRFSGSRSGTSASLAISGLQSEDEADYFCSTWDDSLKGPIFGGGTKLTVL[letters of human IgG1 Fc with Y349C T366S L368A F405K Y407V (EU numbers) omitted]GGGGSGGGGSGGGGSGGGGSITCPPPMSVEHADIWVKSYSLYSRERYICNSGFKRKAGTSSLTECVLNKATNVAHWTTPSLKCIRDP
# notes: also called anti-PD-L1-scFv-Fc/IL-15
# Tests used:
# [1] = target: T2, human PD-L1-HIS tagged recombinant protein (human, UniProt Q9NZQ7 fragment); experiment: ELISA, coated PD-L1-HIS, anti-Human HRP
# T2 construct: also called hPD-L1-HIS; PD-L1 HIS tagged protein
# Procedure: The plate was incubated overnight at 4° C. followed by blocking with 80 μL of superblock per well for 1 hour. […] In between each step, the plate was washed 3 times with 1×PBST in a plate washer. […] The plate was read at OD450 nm Biotek plate reader and then plotted in Prism 8.1 software to calculate EC50.
# [2] = target: PD-L1 on PD-L1 aAPC/CHOK1 cells (Promega J1250); experiment: cell-based or functional assay
# [3] = target: T1, recombinant His-tagged human IL-2Rβ; experiment: SPR, Protein A capture, IL-15Rβ-HIS analyte
# Procedure: Note, the IL-15 receptor shares the same Beta subunit with IL-2 receptor. Therefore, IL-15Rβ is also referred to as IL-2Rβ and CD122. The assay was run with Biacore T200 control software version 2.0. […] The flow cells were then regenerated with Glycine pH 2 for 60 seconds at flow rate of 30 μl/min. […] The specific binding response unit was derived from subtraction of binding to reference flow cell 1 from antibody captured flow cell 2.
# [4] = target: T2, human PD-L1-HIS tagged recombinant …; experiment: SPR, Protein A capture, PD-L1-HIS analyte
binder,measurement,setting,value
B1,EC50,[1],0.11 nM
same,NFAT reporter EC50,[2],2.3 nM
same,Kd,[3],63 nM
same,koff,[3],0.0298 s⁻¹
same,kon,[3],473000 M⁻¹ s⁻¹
same,Kd,[4],0.509 nM
same,koff,[4],0.00047 s⁻¹
same,kon,[4],923000 M⁻¹ s⁻¹
